According to patent EP4786499A1 (Guangdong Fapon Biopharma Inc., dated 2026):

How the values were obtained:
human IL10R1 = target: T1, human IL10R1 (human, UniProt Q13651 22-578); assay: FACS on CHO/human IL10R1 cells
T1 construct: whole, on cells; also called CHO/human IL10R1
T1 sequence (looked up): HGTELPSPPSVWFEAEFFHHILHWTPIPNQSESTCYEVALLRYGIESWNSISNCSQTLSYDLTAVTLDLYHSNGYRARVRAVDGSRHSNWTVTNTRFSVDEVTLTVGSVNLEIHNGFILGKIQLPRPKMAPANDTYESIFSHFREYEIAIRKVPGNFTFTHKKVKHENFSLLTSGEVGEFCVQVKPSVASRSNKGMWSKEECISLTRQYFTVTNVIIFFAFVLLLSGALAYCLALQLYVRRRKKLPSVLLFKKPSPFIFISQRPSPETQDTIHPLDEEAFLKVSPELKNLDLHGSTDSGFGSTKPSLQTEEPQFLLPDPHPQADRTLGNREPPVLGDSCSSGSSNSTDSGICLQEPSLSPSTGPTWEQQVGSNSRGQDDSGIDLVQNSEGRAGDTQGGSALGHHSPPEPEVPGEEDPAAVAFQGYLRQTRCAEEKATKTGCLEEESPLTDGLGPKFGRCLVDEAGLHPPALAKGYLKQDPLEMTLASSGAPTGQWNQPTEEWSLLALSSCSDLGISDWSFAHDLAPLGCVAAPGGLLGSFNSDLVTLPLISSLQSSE

human PD1 [1] = target: T2, human PD1 (human, UniProt Q15116 25-288); assay: FACS: blocking of human PD-L1-mFC (1 µg/mL) binding to CHO/human PD-1 cells
T2 construct: whole, on cells; also called hPD1; CHO-hPD1

cyno IL10R1 = target: T3, cyno IL10R1 (cyno, UniProt A0A2K5WJ66 22-576); assay: FACS on CHO/cyno IL10R1 cells
T3 construct: whole, on cells; also called CHO/cyno IL10R1; monkey IL10R1
T3 sequence: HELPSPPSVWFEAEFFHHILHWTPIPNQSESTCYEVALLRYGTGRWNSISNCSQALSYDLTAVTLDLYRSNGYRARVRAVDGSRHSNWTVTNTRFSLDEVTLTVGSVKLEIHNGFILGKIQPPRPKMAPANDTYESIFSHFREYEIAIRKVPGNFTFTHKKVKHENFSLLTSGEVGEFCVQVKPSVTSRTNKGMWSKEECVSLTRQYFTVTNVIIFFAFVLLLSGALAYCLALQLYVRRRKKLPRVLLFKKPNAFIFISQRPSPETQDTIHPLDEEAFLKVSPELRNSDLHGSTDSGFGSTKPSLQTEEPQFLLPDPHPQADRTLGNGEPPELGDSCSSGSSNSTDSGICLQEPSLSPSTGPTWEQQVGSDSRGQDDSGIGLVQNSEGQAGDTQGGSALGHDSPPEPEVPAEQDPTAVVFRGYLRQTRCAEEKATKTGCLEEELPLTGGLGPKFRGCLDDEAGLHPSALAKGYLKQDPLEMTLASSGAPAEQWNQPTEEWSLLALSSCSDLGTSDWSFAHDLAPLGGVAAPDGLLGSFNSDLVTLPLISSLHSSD

mouse IL10R1 = target: T4, mouse IL10R1 (mouse, UniProt Q61727 17-575); assay: FACS on CHO/mouse IL10R1 cells
T4 construct: whole, on cells; also called CHO/mouse IL10R1
T4 sequence (looked up): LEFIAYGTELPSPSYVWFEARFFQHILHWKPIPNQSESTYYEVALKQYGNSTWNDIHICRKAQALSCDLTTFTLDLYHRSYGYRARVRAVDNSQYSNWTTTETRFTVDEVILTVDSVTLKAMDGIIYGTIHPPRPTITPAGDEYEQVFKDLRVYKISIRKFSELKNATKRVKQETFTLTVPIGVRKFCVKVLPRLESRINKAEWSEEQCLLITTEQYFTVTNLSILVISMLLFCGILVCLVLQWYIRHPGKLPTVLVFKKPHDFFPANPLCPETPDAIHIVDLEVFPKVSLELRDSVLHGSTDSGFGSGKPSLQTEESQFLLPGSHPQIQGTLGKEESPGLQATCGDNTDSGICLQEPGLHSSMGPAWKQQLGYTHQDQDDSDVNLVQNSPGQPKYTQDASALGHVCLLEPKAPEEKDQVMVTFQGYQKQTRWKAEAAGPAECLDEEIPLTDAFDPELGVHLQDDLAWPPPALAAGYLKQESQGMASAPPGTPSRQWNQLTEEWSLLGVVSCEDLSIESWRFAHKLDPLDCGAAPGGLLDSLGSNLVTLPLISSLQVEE

human PD1 [2] = target: T2, human PD1; assay: FACS binding on CHO/human PD-1 cells (Example 12)
human PD1 [3] = target: T2, human PD1; assay: cell-based or functional assay
mouse PD-1 = target: T5, mouse PD-1 (mouse, UniProt Q02242 25-288); assay: FACS on CHO/mouse PD-1 cells
T5 construct: whole, on cells; also called CHO/mouse PD-1
T5 sequence (looked up): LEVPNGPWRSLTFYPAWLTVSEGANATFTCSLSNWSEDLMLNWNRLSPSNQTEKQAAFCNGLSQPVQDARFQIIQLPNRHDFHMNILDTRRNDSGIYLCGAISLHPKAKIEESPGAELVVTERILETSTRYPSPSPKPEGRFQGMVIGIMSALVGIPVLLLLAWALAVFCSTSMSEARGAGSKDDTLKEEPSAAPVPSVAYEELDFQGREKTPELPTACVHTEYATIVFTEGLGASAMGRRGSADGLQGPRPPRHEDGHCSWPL

human PD1 [4] = target: T2, human PD1; assay: FACS on CHO/human PD-1 cells
cyno PD-1 = target: T6, cyno PD-1 (cyno, UniProt B0LAJ3 25-288); assay: FACS on CHO/cyno PD-1 cells
T6 construct: also called CHO/cyno PD-1; monkey PD-1

[5] = target: T7, human IL10R (IL-10 receptor on the H_IL10 Reporter 293 Cell Line) (human, UniProt Q13651 22-578); assay: cell-based or functional assay
T7 sequence (looked up): T1 sequence (looked up)

T2 sequence (Q15116 25-288): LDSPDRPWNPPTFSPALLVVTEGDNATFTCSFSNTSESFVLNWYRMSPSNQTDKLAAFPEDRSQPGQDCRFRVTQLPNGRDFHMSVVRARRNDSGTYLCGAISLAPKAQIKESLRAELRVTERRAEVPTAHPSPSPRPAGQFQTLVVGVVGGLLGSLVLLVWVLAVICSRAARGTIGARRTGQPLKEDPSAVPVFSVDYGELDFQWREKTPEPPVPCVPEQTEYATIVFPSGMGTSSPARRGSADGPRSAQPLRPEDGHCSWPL
cyno PD-1, sequence (B0LAJ3 entry or part of it limits assumed, form in doubt): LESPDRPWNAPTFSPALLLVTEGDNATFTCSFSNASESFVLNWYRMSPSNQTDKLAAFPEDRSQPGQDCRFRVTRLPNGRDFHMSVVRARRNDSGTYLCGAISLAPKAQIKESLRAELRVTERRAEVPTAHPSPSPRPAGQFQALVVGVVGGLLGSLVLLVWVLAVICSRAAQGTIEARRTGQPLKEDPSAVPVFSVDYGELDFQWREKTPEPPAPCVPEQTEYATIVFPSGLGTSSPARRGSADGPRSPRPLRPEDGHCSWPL

EC50 (human IL10R1): 8.86 nM
IC50 (human PD1 [1]): 8.62 nM
EC50 (cyno IL10R1): 4.65 nM
EC50 (mouse IL10R1): 2.32 nM
EC50 (human PD1 [2]): 7.3 nM
EC50 of luciferase reporter gene activity (CHO-OKT3-hPD-L1 cells + Jurkat-NFAT-luc-hPD-1 cells) (human PD1 [3]): 5.07 nM
binding result (mouse PD-1): no binding
EC50 (human PD1 [4]): 6.04 nM
EC50 (cyno PD-1): 3.59 nM
EC50 of luciferase reporter gene activity on H_IL10 Reporter 293 Cell Line, enriched (with CHO/human PD-1 cells) [5]: 1.81 nM
EC50 of luciferase reporter gene activity on H_IL10 Reporter 293 Cell Line, non-enriched [5]: 9.24 nM
B1: anti-PD1-IL10 fusion protein R1153 (other)
light: DIQMTQSPSSLSASVGDRVTITCRASKSVSTSGYSYMHWYQQKPGKAPKLLIYLAYHLESGVPSRFSGSGSGTDFTLTISSLQPEDFATYYCQHSWELPITFGQGTKLEIKRTVAAPSVFIFPPSDEQLKSGTASVVCLLNNFYPREAKVQWKVDNALQSGNSQESVTEQDSKDSTYSLSSTLTLSKADYEKHKVYACEVTHQGLSSPVTKSFNRGECGGGGSGGGGSGGGGSGGGGSGGQGTQSENSCTHFPGNLPNMLRDLRDAFSRVKTFFQMKDQLDNLLLKESLLEDFKGYLGCQALSEMIQFYLEEVMPQAENQDPDIKAHVNSLGENLKTLRLRLRRCHRFLPCENGGGSGGKSKAVEQVKNAFNKLQEKGIYKAMSEFDIFINYIEAYMTMKIRN
heavy: QVQLVQSGAEVKKPGASVKVSCKASGYTFTTYYMYWVRQAPGQGLEWMGGINPSNGGTNYAQKFQGRATMTVDTSTSTAYMELSSLRSEDTAVYYCTRRDSNYDGGFDYWGQGTTVTVSSASTKGPSVFPLAPSSKSTSGGTAALGCLVKDYFPEPVTVSWNSGALTSGVHTFPAVLQSSGLYSLSSVVTVPSSSLGTQTYICNVNHKPSNTKVDKRV[left out - human IgG1 Fc with changes]
notes: Antibody-cytokine fusion: modified monomeric IL10 linked to the C-terminus of the light chain of anti-PD1 antibody R1152; two identical first chains and two identical second chains; also called anti-hPD1-IL10M
